According to patent US20240360218A1 (KYMAB, published 2024):

Target: T1, TIGIT, recombinant analyte in SPR (Example 10) (UniProt Q495A1 22-141, limits assumed)
T1 construct: also called recombinant TIGIT
T1 sequence (looked up): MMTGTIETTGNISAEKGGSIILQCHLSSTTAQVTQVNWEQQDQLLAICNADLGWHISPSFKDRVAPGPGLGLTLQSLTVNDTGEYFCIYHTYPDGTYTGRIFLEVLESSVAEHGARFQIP
Assay: SPR (ProteOn), anti-human Fc capture, 25 C

B1: 1D05-IgG1 disabled (LAGA) with 1D05 kappa light chain (antibody)
heavy: EVQLVESGGGLVQPGRSLRLSCAASGFTFDDYAMHWVRQVPGKGLEWVSGISWIRTGIGYADSVKGRFTIFRDNAKNSLYLQMNSLRAEDTALYYCAKDMKGSGTYGGWFDTWGQGTLVTVSS[human IgG1 constant region with L235A G237A (EU numbers) omitted]
light: [about 100 residues omitted][about 100 residues omitted]
notes: also called Antibody 1; In-house anti-PD-L1
binding result: no binding (tested: 512 nM (top analyte concentration))
